Test results from the supplement of paper PMC12462457.
Structures can show the parent of a compound that is named as a salt. ± gives the standard deviation of the averaged measurements. This is one part of the list.

Test system: OVCAR8
Experiment: cell count relative to DMSO vehicle (fold change); OVCAR8 is a high-grade serous ovarian cancer line and CX-5461 an RNA polymerase I inhibitor; higher = more surviving senescent cells (less killing)
Details: senescence inducer: CX-5461 3 µM 48 h, then 6 d recovery (CX senescent), exposure time 24 h

| Structure (SMILES) | cell count (compound dose 1 µM) | cell count (compound dose 5 µM) |
| --- | --- | --- |
| Nc1ncn([C@H]2C[C@H](O)[C@@H](CO)O2)c(=O)n1 [Decitabine] | 1.07 ± 0.098 | 0.968 ± 0.028 |
| O=c1cc(-c2ccc(O)c(O)c2)oc2cc(O)cc(O)c12 [Luteolin] | 0.886 ± 0.1 | 0.992 ± 0.22 |
| O=C(NOCCO)c1ccc2cncn2c1Nc1ccc(I)cc1F | 1.17 ± 0.027 | 1.09 ± 0.057 |
| CC(=O)Nc1ccc(NC(=S)NC(=O)c2ccc(C(C)(C)C)cc2)cc1 [Tenovin-1] | 1.08 ± 0.26 | 1.07 ± 0.058 |
| O=C1C=C2CC3(O)COc4c(ccc(O)c4O)C3=C2C=C1O (centres undefined) [Hematein] | 1.16 ± 0.15 | 1.11 ± 0.13 |
| CC(C)N(CCCNC(=O)Nc1ccc(C(C)(C)C)cc1)C[C@H]1O[C@@H](n2ccc3c(N)ncnc32)[C@H](O)[C@@H]1O | 1.02 ± 0.021 | 1.02 ± 0.035 |
| Cc1cc(Nc2ccc(NC(=O)c3ccc(Nc4ccnc5ccccc45)cc3)cc2)nc(N)n1 | 1.05 ± 0.19 | 0.268 ± 0.18 |
| CN1CCN(c2ccc(-c3ccncc3-c3cc(F)c(O)c(F)c3)cc2)CC1 | 1.2 ± 0.14 | 1.19 ± 0.088 |
| NC(=O)[C@H](CCCN=C(N)CCl)NC(=O)c1ccccc1 [Cl-amidine (hydrochloride)] | 1.02 ± 0.19 | 1.011 ± 0.0099 |
| C[C@H](Oc1cc(-c2cnn(C3CCNCC3)c2)cnc1N)c1c(Cl)ccc(F)c1Cl [(S)-Crizotinib] | 0.311 ± 0.1 | 0.127 ± 0.0071 |
| COc1cc(/C=C/c2ccc(O)c(O)c2)cc(OC)c1 [3'-Hydroxypterostilbene] | 1.21 ± 0.14 | 1.49 ± 0.15 |
| O=C1CC[C@H](N2Cc3c(OCc4ccc(CN5CCOCC5)cc4)cccc3C2=O)C(=O)N1 [Iberdomide] | 1.28 ± 0.28 | 1.32 ± 0.34 |
| CC1(C)CC[C@]2(C(=O)O)[C@H](O)C[C@]3(C)C(=CC[C@@H]4[C@@]5(C)CC[C@H](O)C(C)(C)[C@@H]5CC[C@]43C)[C@H]2C1 [Echinocystic acid] | 1.103 ± 0.0035 | 1.19 ± 0.12 |
| CN(CCOc1ccc(CC2SC(=O)NC2=O)cc1)c1ccccn1 (centres undefined) | 1.07 ± 0.21 | 1.07 ± 0.16 |
| O=C(O)CC1CC(c2ccccc2)=NO1 (centres undefined) | 1.18 ± 0.038 | 1.13 ± 0.081 |
| COC[C@H](NC(=O)c1cnc(C)s1)C(=O)N[C@@H](COC)C(=O)N[C@@H](Cc1ccccc1)C(=O)[C@@]1(C)CO1 [Oprozomib] | 1.31 ± 0.38 | 0.571 ± 0.057 |
| CC(CCC(=O)NCCS(=O)(=O)O)C1CCC2C3C(O)CC4CC(O)CCC4(C)C3CCC12C (centres undefined) [Taurochenodeoxycholic acid (sodium salt)] | 1.16 ± 0.27 | 1.15 ± 0.34 |
| COc1ccc(CC[C@@H](OC(=O)[C@@H]2CCCCN2C(=O)[C@H](c2cc(OC)c(OC)c(OC)c2)C2CCCCC2)c2cccc(OCCN3CCOCC3)c2)cc1OC | 1.15 ± 0.19 | 1.11 ± 0.23 |
| S=C(N/N=C1/CCCc2cccnc21)N1CCN(c2ccccn2)CC1 | 0.899 ± 0.1 | 0.968 ± 0.11 |

| Structure (SMILES) | cell count (compound dose 1 µM) | cell count (compound dose 5 µM) |
| --- | --- | --- |
| COc1ccc(-c2cc(C(F)F)nn2-c2ccc(S(N)(=O)=O)cc2)cc1F | 1.17 ± 0.052 | 1.05 ± 0.12 |
| O=C(Nc1ccc(Cl)c(Cl)c1)Nc1ccc2nnsc2c1 | 0.625 ± 0.069 | 0.482 ± 0.018 |
| CN1C(=O)[C@@H](NC(=O)c2cc(Cc3ccccc3)on2)COc2ccccc21 | 1.15 ± 0.28 | 1.24 ± 0.42 |
| COc1c(/C=C/C(=O)c2ccc(O)cc2)ccc(O)c1O [Licochalcone B] | 1 ± 0.1 | 0.905 ± 0.17 |
| O=C(NS(=O)(=O)c1ccc(Br)s1)c1ccc(Cl)cc1Cl [Tasisulam] | 0.954 ± 0.11 | 1.05 ± 0.13 |
| C/C(=N\NC(=O)c1cccc(S(=O)(=O)N2CCOCC2)c1)c1cc(Cl)ccc1O | 1.201 ± 0.011 | 1.17 ± 0.095 |
| C=CCSCC(N)C(=O)O (centres undefined) | 1.21 ± 0.12 | 1.21 ± 0.095 |
| CC(Nc1nc(N2CCCC2)nc2ccccc12)c1ccccc1 (centres undefined) [Importazole] | 1.17 ± 0.15 | 1.12 ± 0.088 |
| COc1cc2c(c(OC)c1OC)-c1c(cc3c(c1OC)OCO3)C[C@H](C)[C@H](C)C2 [Gomisin N] | 0.995 ± 0.078 | 1.008 ± 0.0057 |
| Nc1cccc2c1CN(C1CCC(=O)NC1=O)C2=O (centres undefined) [Lenalidomide] | 1.04 ± 0.1 | 1.08 ± 0.05 |
| CCOC(=O)C1=CCCC[C@H]1S(=O)(=O)Nc1ccc(F)cc1Cl [Resatorvid] | 1.01 ± 0.099 | 0.857 ± 0.014 |
| O=C(Nc1ccc(-c2ccnc(Nc3ccc(N4CCOCC4)cc3)n2)cc1)C1CCCN1 (centres undefined) | 1.07 ± 0.079 | 1.03 ± 0.16 |
| COc1nc(-c2ccc3c(c2)OCO3)n(-c2ccc(NC(=O)CSc3ccccc3)cc2)n1 [SecinH3] | 0.995 ± 0.1 | 0.941 ± 0.18 |
| Cc1ccc(NC(=O)Nc2nnc(Sc3ncnc4cc(OCCCN5CCOCC5)ccc34)s2)cc1 | 0.983 ± 0.015 | 0.93 ± 0.025 |
| O=NN(CCCl)C(=O)NC1CCCCC1 | 1.02 ± 0.25 | 1.12 ± 0.096 |
| CCc1cccc2c1N(C)Cc1cc3c(cc1-2)OCO3 | 1.13 ± 0.2 | 1.05 ± 0.2 |
| CCOc1cc(C(C)(C)C)ccc1C1=N[C@@](C)(c2ccc(Cl)cc2)[C@@](C)(c2ccc(Cl)cc2)N1C(=O)N1CCN(CC(=O)N2CCOCC2)CC1 [p53 and MDM2 proteins-interaction-inhibitor (chiral)] | 1.15 ± 0.24 | 0.986 ± 0.033 |
| O=c1c2cc(O)c(O)cc2oc2cc(O)c([C@@H]3O[C@H](CO)[C@@H](O)[C@H](O)[C@H]3O)c(O)c12 [Mangiferin] | 0.999 ± 0.26 | 1.05 ± 0.24 |
